PubChem BioAssay AID2147 (National Center for Advancing Translational Sciences (NCATS), 2009)
Screen size: about 230,000 compounds; about 3,600 (1.6%) were called active. This list was built around the results that the source calls inconclusive (neither active nor inactive); the mix of calls is not that of the screen. The call rests on the fitted dose curve; in most records, active means well fitted inhibition curve with a large enough effect (not every such curve was filed as active); inconclusive means small, poorly fitted or top-dose-only effect, or another doubt; inactive means no such curve, though single readings can be large or run the other way. Where the call is inconclusive, the potency comes from a doubtful curve fit.

Target: Lysine-specific demethylase 4E (Homo sapiens) (UniProt B2RXH2)
UniProt B2RXH2, sequence (B2RXH2 whole entry, looked up, the tested form may be a part): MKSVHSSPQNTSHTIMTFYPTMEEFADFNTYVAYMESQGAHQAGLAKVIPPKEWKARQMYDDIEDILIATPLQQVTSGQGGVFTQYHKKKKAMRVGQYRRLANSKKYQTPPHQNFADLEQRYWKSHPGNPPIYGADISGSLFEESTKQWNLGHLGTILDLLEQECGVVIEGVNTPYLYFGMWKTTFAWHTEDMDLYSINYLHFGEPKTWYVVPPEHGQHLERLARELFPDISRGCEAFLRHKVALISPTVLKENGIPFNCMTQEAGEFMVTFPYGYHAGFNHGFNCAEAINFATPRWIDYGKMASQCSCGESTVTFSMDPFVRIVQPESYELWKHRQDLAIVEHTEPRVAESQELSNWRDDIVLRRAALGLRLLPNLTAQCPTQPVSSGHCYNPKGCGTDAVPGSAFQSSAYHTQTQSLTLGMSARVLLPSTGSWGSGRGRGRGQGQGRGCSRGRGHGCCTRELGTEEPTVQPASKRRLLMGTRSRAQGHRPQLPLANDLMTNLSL
Assay: qHTS Assay for Inhibitors of Human Jumonji Domain Containing 2E (JMJD2E)
Conditions: JMJD2E catalytic domain, FDH-coupled NADH fluorescence (FDH is formaldehyde dehydrogenase); series mostly up to 57.1 µM; activity change, negative = inhibition: at the top concentration
Further: nearly all actives have a fitted effect of over 50% in size.
Potency means the concentration at half of the fitted maximal effect; tags describe the fitted curve by direction and shape.
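Wherever activity change, negative = inhibition is given: 0% = wells with enzyme and -100% = buffer wells without enzyme.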

Row | SMILES | Potency | activity change, negative = inhibition
1 | CC(C)c1nnc(NC(=O)CCC(=O)N2CCN(c3ccccn3)CC2)s1 | inconclusive: 22.4 µM [inhibitor, partial curve] | 
2 | CC(Cl)C(=O)NNc1cccc(Cl)n1 (configuration not stated) |  | inactive: 5.91%
3 | Cc1ccc(C2OCC3(CO2)COC(c2ccc(C)cc2)OC3)cc1 (configuration not stated) |  | inactive: 2.36%
4 | Cc1cccc(NC(=O)CCS(=O)(=O)c2cccc3nsnc23)c1C |  | inactive: 1.35%
5 | NC(=O)Cc1ccc(C(=O)c2ccc(F)cc2)s1 |  | inactive: 0.363%
6 | Cc1cc(Nc2ccccc2)nc(-c2ccccc2O)n1 | inconclusive: 31.6 µM [inhibitor, single point] | 
7 | CCc1ccc(NCCC(=O)c2ccc(Br)cc2)cc1 |  | inactive: 2.98%
8 | CC12CCC(C(=O)N(NC(=O)c3ccccc3O)C1=O)C2(C)C (configuration not stated) | inconclusive: 28.2 µM [inhibitor, partial curve] | 
9 | Cc1ccc(CN=c2c([N+](=O)[O-])nn(-c3ccc4c(c3)OCCO4)n2O)cc1 |  | inactive: 1.31%
10 | O=C(O)CCc1ccc(-c2ccccc2)n1CC(=O)O | inconclusive: 28.2 µM [inhibitor, partial curve] | 
11 | CCOC(=O)CN1C=C(c2ccc3ccccc3n2)C(C[N+](=O)[O-])c2ccccc21 (configuration not stated) | inconclusive: 14.1 µM [inhibitor, partial curve] | 
12 | O=C(N/N=C/c1ccc2c(c1)OCO2)c1cc(-c2ccncc2)nc2ccccc12 |  | inactive: 7.51%
13 | CCOc1cc(/C=C(/NC(C)=O)C(=O)O)cc(Cl)c1OCc1cccc(Br)c1 |  | inactive: -0.0985%
14 | Cc1cccc(NC(=O)c2cc(N3CCOCC3)nc3ccccc23)c1 | inconclusive: 35.5 µM [inhibitor, partial curve] | 
15 | CN(C)c1ccc(O)c2c1CC1CC3[C@@H](N(C)C)C(=O)C(C(N)=O)=C(O)[C@]3(O)C(=O)C1=C2O (some centres not stated) | inconclusive: 3.16 µM [inhibitor, single point] | 
16 | CCOC(=O)COc1c(OC)cc(Cl)cc1C1Nc2ccccc2C(=O)N1c1cccc(C)c1 (configuration not stated) | inconclusive: 25.1 µM [inhibitor, partial curve] | 
17 | O=C(O)c1cc2cccc(S(=O)(=O)N3CCOCC3)c2cc1O | inconclusive: 31.6 µM [inhibitor, single point] | 
18 | O=C(/C=C/c1ccccc1)NC(=S)N1CCSCC1 | inconclusive: 39.8 µM [inhibitor, single point] | 
19 | CC(=O)Nc1nc(SCc2ccc(Cl)cc2Cl)n[nH]1 |  | inactive: 3.6%
20 | Cc1ccc(C)c(NC(=O)CCC(=O)N/N=C/c2cc([N+](=O)[O-])ccc2O)c1 | inconclusive: 35.5 µM [inhibitor, single point] | 
21 | COc1ccccc1OCc1nnc(SCCN2CCOCC2)o1 | inconclusive: 25.1 µM [inhibitor, single point] | 
22 | O=C(N/N=C/c1ccc(F)cc1)c1cc(-c2ccc3c(c2)OCO3)n[nH]1 |  | inactive: -8.07%
23 | Cc1cc(C)n2c(C)nnc2c1 | inconclusive: 31.6 µM [inhibitor, partial curve] | 
24 | COc1cc(CNCc2cccnc2)ccc1OCC(=O)NC(C)(C)C |  | inactive: -17.4%
25 | Cc1ccnc(N2CCC(C(=O)Nc3ccc4c(c3)CCC4)CC2)n1 | inconclusive: 35.5 µM [inhibitor, single point] | 
26 | Cc1ccc(S(=O)(=O)N2CCCCC2C(=O)O)cc1 (configuration not stated) | inconclusive: 31.6 µM [inhibitor, partial curve] | 

Row | SMILES | Potency | activity change, negative = inhibition
27 | CN(C)c1ccc(/C=N/O)cc1 |  | inactive: -5.7%
28 | CCc1c(C)sc(NC(=O)c2cc(C)on2)c1C#N |  | inactive: 3.85%
29 | CCOC(=O)c1sc(NCc2ccco2)c(-c2nc3ccccc3s2)c1N | inconclusive: 25.1 µM [inhibitor, partial curve] | 
30 | CCN1CCN(c2ncc(C(=O)Nc3ccccc3C(=O)OC)c3ccccc23)CC1 | inconclusive: 35.5 µM [inhibitor, single point] | 
31 | Cc1cc(NCc2ccccn2)n2ncc(-c3ccccc3)c2n1 | inconclusive: 25.1 µM [inhibitor, partial curve] | 
32 | Cn1c(=O)c2c(nc(Br)n2CC(=O)C23CC4CC(CC(C4)C2)C3)n(C)c1=O |  | inactive: 4.96%
33 | O=C(NCc1cccnc1)c1cn(-c2ccccc2)nc1-c1cccs1 | inconclusive: 31.6 µM [inhibitor, single point] | 
34 | COC(=O)/C(=C\C(=O)c1ccccc1)Nc1ccc(OC)cc1 | inconclusive: 39.8 µM [inhibitor, single point] | 
35 | C/C=C(\C)C(=O)OC1C(OC(=O)C2(C)OC2C)c2cc3ccc(=O)oc3cc2OC1(C)C (configuration not stated) | inconclusive: 31.6 µM [inhibitor, partial curve] | 
36 | CCC(=O)c1ccc(O)c(CC=C(C)C)c1 |  | inactive: -2.63%
37 | O=C(NC1CCCCC1)N1CCc2[nH]c3ccccc3c2C1 | inconclusive: 25.1 µM [inhibitor, partial curve] | 
38 | Cc1nnsc1C(=O)NNC(=O)c1ccc(C(F)(F)F)cc1 |  | inactive: 3.85%
39 | COc1cc2c(C(=O)O)c(C)n(CC(C)C)c2c2ccccc12 | inconclusive: 25.1 µM [inhibitor, partial curve] | 
40 | Cc1cc(C)nc(NC(=S)Nc2ccccc2)n1 |  | inactive: -3.87%
41 | CCOC(=O)c1sc(NC(=S)NC(=O)C23CC4CC(CC(C4)C2)C3)cc1C |  | inactive: 4.72%
42 | c1ccc(-c2cn3c(n2)-c2ccccc2C3)cc1 | active: 3.16 µM | 
43 | COc1ccc(-c2cnc(NCc3cc4c(cc3[N+](=O)[O-])OCO4)n2C)cc1 | inconclusive: 25.1 µM [inhibitor, single point] | 
44 | CCOC(=O)Oc1ccc2c(c1)C(C)=CC(C)(C)N2C(=O)OCC |  | inactive: 2.19%
45 | Cc1cc(C(=O)CN2C(=O)C(=O)N(CC(C)C)C2=O)c(C)n1-c1ccccc1F |  | inactive: 1.48%
46 | COc1ccc(C)cc1NC(=O)c1nnn(Cc2cccc(F)c2)c1N | inconclusive: 31.6 µM [inhibitor, single point] | 
47 | O=C(O)CCc1nc(-c2ccccc2)c(-c2ccccc2)o1 | inconclusive: 25.1 µM [inhibitor, single point] [middle of 4 runs] | 
48 | CCOC(=O)N1CCC(NC(=O)CSCc2nc(-c3ccc(OC)c(OC)c3)oc2C)CC1 | inconclusive: 35.5 µM [inhibitor, single point] | 
49 | O=C(Cc1cccs1)Nc1cccc(-c2nc3ccccc3o2)c1 | inconclusive: 39.8 µM [inhibitor, single point] | 
50 | c1ccc(OCc2nn3c(Cn4cnc5ccccc54)nnc3s2)cc1 |  | inactive: -5.44%
51 | O=S(=O)(Nc1ncccn1)c1ccc(NC(=S)NCCc2ccc(Cl)cc2)cc1 |  | inactive: -15.1%
52 | O=c1[nH]c2cc3c(cc2cc1CN(Cc1cccnc1)C(=S)NCc1ccco1)OCCO3 |  | inactive: 4.46%

Row | SMILES | Potency | activity change, negative = inhibition
53 | O=C(CCCOc1ccccc1)N1CCN(c2ccccc2)CC1 |  | inactive: -5.56%
54 | COc1ccccc1-c1nc(C(N)=O)c2[nH]c(=O)n(-c3cccc(C)c3)c2n1 | inconclusive: 35.5 µM [inhibitor, single point] | 
55 | CC(C)CNC(=O)NC(=O)COc1c(F)c(F)cc(F)c1F | inconclusive: 28.2 µM [inhibitor, partial curve] | 
56 | O=C(O)c1ccc(N/N=C/c2ccnc3ccccc23)cc1 |  | inactive: -6.49%
57 | OC(COc1ccc2cc(Br)ccc2c1)CN1CCOCC1 (configuration not stated) |  | inactive: 8.54%
58 | CCC(C)NC(=O)c1ccccc1NC(=O)Nc1ccccc1 (configuration not stated) | inconclusive: 39.8 µM [inhibitor, single point] | 
59 | Cc1ccc(S(=O)(=O)Cc2sc3ccccc3[n+]2C)cc1 | inconclusive: 39.8 µM [inhibitor, single point] | 
60 | CCn1c(SCc2ccc(C(=O)Nc3nccs3)cc2)nnc1-c1ccc(NC(C)=O)cc1 |  | inactive: -2.12%
61 | N#CC1(C#N)C2=C(CCCC2)NC(c2ccccc2)C1(C#N)C#N (configuration not stated) | inconclusive: 39.8 µM [inhibitor, single point] | 
62 | CCOC(=O)c1c(CN2CCOCC2)oc2ccc(OC)cc12 | inconclusive: 20 µM [inhibitor, single point] | 
63 | CC1(C)C=Cc2c(c3c(c4c(=O)c(-c5ccc(O)cc5)coc24)OC(C)(C)CC3)O1 | inconclusive: 35.5 µM [inhibitor, single point] | 
64 | Cc1ccc(C=Nc2ccccc2C(N)=O)o1 |  | inactive: 2.14%
65 | O=C(/C=C/c1cccc([N+](=O)[O-])c1)NC(=S)Nc1ccccc1C(=O)O |  | inactive: -3.68%
66 | O=C(N1CCOCC1)C1(c2ccc(Cl)cc2)CCCC1 |  | inactive: -7.74%
67 | COc1ccc2c(c1OC)C(=O)N(C(C)C(=O)O)C2=O (configuration not stated) | inconclusive: 39.8 µM [inhibitor, single point] | 
68 | CNc1nc(OCC#N)nc(N2CCCCC2)n1 | inconclusive: 12.6 µM [inhibitor, partial curve] | 
69 | Cc1ccc(S(=O)(=O)Nc2cc(=O)[nH]c(SCc3ccccc3Cl)n2)cc1 |  | inactive: -11.2%
70 | Fc1cccc(F)c1-n1c(CN2CCCC2)csc1=S |  | inactive: 2.42%
71 | CCc1cc(=O)oc2cc(OCC=C(C)C)ccc12 | inconclusive: 28.2 µM [inhibitor, partial curve] | 
72 | CCOc1cc(/C=N/NC(=O)CN2CCOCC2)ccc1OCc1ccccc1 |  | inactive: -7.77%
73 | COc1ccc(NC(=O)Cc2ccc(Cl)cc2)cc1NC(=O)c1ccco1 | inconclusive: 35.5 µM [inhibitor, single point] | 
74 | COc1cc(C2N(c3ccccc3)CCN2c2ccccc2)cc(OC)c1OC | inconclusive: 31.6 µM [inhibitor, single point] | 
75 | CC(C)C(Nc1ncnc2c1oc1ccccc12)C(=O)O (configuration not stated) | inconclusive: 39.8 µM [inhibitor, single point] | 
76 | CC1(C)OC2C[C@](O)(C(N)=O)C[C@H](O)[C@H]2O1 (some centres not stated) |  | inactive: -3.11%
77 | COc1cc2[nH]c(=O)n(CCCCCC(=O)N3CCN(c4ccccn4)CC3)c(=O)c2cc1OC | inconclusive: 28.2 µM [inhibitor, single point] | 
